# Among all 310,000 compounds or so, about 2,200 (0.71%) showed an effect of 50% or more. The effect is printed as a negative number. This is one part of the list.
# Target: human ether-à-go-go-related gene (hERG) potassium channel (human, UniProt Q12809)
# Experiment: primary screen, population patch clamp on CHO cells stably expressing hERG
# Sequence of human ether-à-go-go-related gene (hERG) potassium channel (Q12809 whole entry, looked up): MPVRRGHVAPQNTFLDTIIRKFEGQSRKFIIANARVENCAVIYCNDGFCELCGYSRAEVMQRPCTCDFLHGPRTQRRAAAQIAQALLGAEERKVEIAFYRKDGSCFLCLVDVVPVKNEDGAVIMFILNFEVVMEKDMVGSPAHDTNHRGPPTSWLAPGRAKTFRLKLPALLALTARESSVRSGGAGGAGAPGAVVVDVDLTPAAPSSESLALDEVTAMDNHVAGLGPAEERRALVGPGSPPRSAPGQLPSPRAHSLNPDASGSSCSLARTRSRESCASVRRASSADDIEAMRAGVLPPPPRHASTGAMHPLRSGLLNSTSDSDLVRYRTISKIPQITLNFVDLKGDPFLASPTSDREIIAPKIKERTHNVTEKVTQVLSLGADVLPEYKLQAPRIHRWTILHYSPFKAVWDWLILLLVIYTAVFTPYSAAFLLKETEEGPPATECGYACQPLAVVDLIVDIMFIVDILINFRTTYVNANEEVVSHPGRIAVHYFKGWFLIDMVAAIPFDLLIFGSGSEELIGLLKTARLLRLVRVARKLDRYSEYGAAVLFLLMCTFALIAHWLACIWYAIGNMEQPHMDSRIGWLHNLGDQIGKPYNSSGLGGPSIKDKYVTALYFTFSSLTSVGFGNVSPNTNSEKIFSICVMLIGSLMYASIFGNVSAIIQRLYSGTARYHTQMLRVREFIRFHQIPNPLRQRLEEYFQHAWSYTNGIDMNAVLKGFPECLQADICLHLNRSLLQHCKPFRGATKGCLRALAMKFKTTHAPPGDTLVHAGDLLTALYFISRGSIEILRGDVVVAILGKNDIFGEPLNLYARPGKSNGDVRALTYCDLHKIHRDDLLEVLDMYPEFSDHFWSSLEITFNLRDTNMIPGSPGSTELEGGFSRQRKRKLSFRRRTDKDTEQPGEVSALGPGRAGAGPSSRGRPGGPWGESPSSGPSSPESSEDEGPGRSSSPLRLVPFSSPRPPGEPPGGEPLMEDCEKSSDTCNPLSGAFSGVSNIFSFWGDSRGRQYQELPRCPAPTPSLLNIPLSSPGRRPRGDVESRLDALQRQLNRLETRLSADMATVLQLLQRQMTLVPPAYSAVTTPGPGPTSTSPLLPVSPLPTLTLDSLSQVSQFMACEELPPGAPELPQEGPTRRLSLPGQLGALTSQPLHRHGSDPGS
row,Compound,"hERG current change (%, negative = inhibition) at 1uM"
1,O=C(N/N=C/c1ccccn1)c1ccccc1,6.27%
2,CSc1ccc(C2Nc3cccc4cccc(c34)N2)cc1,16.3%
3,CCc1ccc(S(=O)(=O)Nc2ccc(C)c(NS(C)(=O)=O)c2)cc1,4.12%
4,O=c1nc(Nc2ccc(OCc3ccccc3)cc2)sc2ncccc12,9.18%
5,O=C(Cn1nnc(-c2ccccc2)n1)OCc1ccccc1,18.5%
6,CN(C(=O)c1cc2n(n1)C(C(F)(F)F)CC(c1ccco1)N2)c1ccccc1 (stereo not drawn),-4.69%
7,Cc1ccc(S(=O)(=O)CCc2nc3ccccc3[nH]2)cc1,-1.24%
8,CSc1nsc(SCC(=O)Nc2cccc(C(C)=O)c2)n1,12.7%
9,O=C1CN(c2ccccc2)C(=O)N1,16.2%
10,CC(C)OCCCn1c(=O)c2ccccc2n2c(CCC(=O)N3CCN(c4ccccn4)CC3)nnc12,-45.9%
11,C=CCn1cc(/C=N\NC(=O)c2cc3c(ccc4ccccc43)o2)c2ccccc21,5.2%
12,CCCN(CC(=O)Nc1ccccc1C)C(=O)c1ccc2c(c1)OCO2,12.3%
13,COc1ccccc1C(=O)NC(CCSC)C(=O)NCCCn1nc(C)cc1C (stereo not drawn),4.64%
14,CCOCCCNC(=O)c1ccc(Cn2c(=O)[nH]c3ccsc3c2=O)cc1,2.8%
15,O=C(COc1ccc(Cl)cc1)NCc1nnc(SCC(=O)NCCc2ccccc2)o1,5.77%
16,CN(C)S(=O)(=O)c1ccc(C(=O)OCC(=O)Nc2ccccc2OC(F)F)cc1,0.166%
17,CCCCn1c(=O)[nH]c(=O)c2c1nc(-c1ccncc1)n2CCOC,9.21%
18,N#Cc1nc(COc2ccc(Cl)cc2)oc1N1CCN(Cc2ccccc2)CC1,10.2%
19,Cc1sc2nc3n(c(=O)c2c1C)NC(=O)CC3,10.4%
20,C=CCNC(=O)N[C@@H](CCSC)C(=O)OC,-3.48%
21,COc1cc(Cl)cc(C(c2c(C(=O)O)[nH]c3ccccc23)c2c(C(=O)O)[nH]c3ccccc23)c1O,8.43%
22,C[C@H]1CCC(=O)N([C@H](CN=[N+]=[N-])Cc2ccccc2)CC1,9.09%
23,Cc1ccc(C2CC(=O)N3CN(c4ccc(Br)cc4)CSC3=C2C#N)o1 (stereo not drawn),6.59%

row,Compound,"hERG current change (%, negative = inhibition) at 1uM"
1,O=C(CSc1nnc(-c2ccco2)o1)c1ccc([N+](=O)[O-])cc1,-2.45%
2,CCN(CC)c1ccc(NC(=O)COc2ccc(C)cc2)cc1,-9.36%
3,O=C(COc1ccccc1)N/N=C/c1ccc([N+](=O)[O-])o1,7.87%
4,O=C(Nc1ccccc1F)c1ccc(Br)o1,15.7%
5,c1cc2c(cc1Oc1nc(N3CCOCC3)nc(N3CCOCC3)n1)OCO2,13.8%
6,CCn1ncc(Br)c1C(=O)Nc1ccccc1C(=O)OC,0.669%
7,COc1cc(OC)nc(Oc2ccccc2C(=O)Oc2ccc(Cl)cc2)n1,-13.1%
8,O=c1[nH]c(Nc2ccccc2Cl)cc2ccccc12,15.1%
9,O=C(Nc1nonc1-c1ccc(Cl)cc1)c1ccccc1,5.22%
10,Cc1ccc(S(=O)(=O)NC(=O)Nc2cc(C(C)(C)C)on2)cc1,9.16%
11,Cc1cccc2cc(C(c3nnnn3C(C)(C)C)N3CCN(C(=O)c4ccco4)CC3)c(=O)[nH]c12 (stereo not drawn),4.38%
12,CN(C)C(=O)CCCCCCCCC(=O)N(C)C,11.2%
13,COc1ccc(/C(C)=N\NS(C)(=O)=O)c(OC)c1,12%
14,O=C(NNC1=C(C(=O)C(F)(F)F)CCC1)c1ccncc1,16.3%
15,CCOc1ccc(N(CC(=O)NC2CCCCC2)C(=O)CSc2nnc(COc3ccccc3)o2)cc1,-4.53%
16,Cc1ccc(-c2ocnc2C(=O)Nc2ccccc2NC(=O)c2ccccn2)cc1,17.9%
17,CCc1ccc(-n2c(=O)c3ccccc3n(CC(=O)NCc3ccco3)c2=O)cc1,13.5%
18,O=C(CSc1nnc(-c2ccccn2)n1-c1ccc(Cl)cc1)Nc1ccc2c(c1)OCO2,18.2%
19,COc1ccccc1C(C)NC(=O)c1cc(=O)[nH]c2ccccc12 (stereo not drawn),17.4%
20,OCCn1nc2c3ccccc3nc-2n(-c2ccccc2)c1=S,-1.24%
21,COc1ccc(OCC(=O)NNc2c3ccccc3nc3ccccc23)cc1,16.8%
22,CCCn1c(SCc2ccccn2)nc2c1c(=O)n(C)c(=O)n2C,16.5%
23,CCCCOc1ccc(C(=O)NCC(=O)NCC(=O)OCC)cc1,1.63%

row,Compound,"hERG current change (%, negative = inhibition) at 1uM"
1,COc1cc(-c2ccccc2)nc(N)n1,-5.77%
2,O=C(Cn1cccc1C(=O)c1ccccc1)NCCCN1CCc2ccccc2C1,-41.7%
3,Cc1ccccc1CSCCNC(=O)c1ccc(N(C)S(=O)(=O)c2ccccc2)cc1,-0.902%
4,COc1ccc(C(=O)CSc2nncn2C)cc1,10.5%
5,CC(=O)c1ccc(N(C(=O)c2csnn2)C(C(=O)NC2CCCC2)c2ccccc2)cc1 (stereo not drawn),-15.6%
6,Cl.O=C(NCC1CCNCC1)c1ccncc1,7.27%
7,CCC(C(=O)NC(C)(C)C)N(C(=O)Cn1nnc(-c2ccccc2F)n1)c1cnc2ccccc2c1 (stereo not drawn),13.2%
8,Cc1csc(C(=O)O)c1-n1cccc1,15.7%
9,c1ccc(C(c2ccccc2)N2CCN(Cc3nc(-c4cnccn4)no3)CC2)cc1,0.669%
10,COc1cccc(-c2ncc3ccccc3c2COC(=O)N2CCOCC2)c1,8.43%
11,COc1ccc(NC(=O)c2ccc(Cl)c(S(=O)(=O)N3CC(C)OC(C)C3)c2)cn1 (stereo not drawn),3.96%
12,CCCCNC(=O)Nc1c(C(=O)OC)[nH]c2ccc(C)cc12,10%
13,COc1ccc(NC(=O)C2CCCN(S(=O)(=O)c3cccc4cccnc34)C2)c(OC)c1 (stereo not drawn),8.76%
14,CCOc1ccc(Br)cc1/C=N/NC(=O)c1ccncc1,-9.04%
15,CCOC(=O)C1CCCN(C(=O)Cn2cnc3c2c(=O)n(C)c(=O)n3C)C1 (stereo not drawn),18.7%
16,O=C(Nc1ccc(C(F)(F)F)cc1)C1CCCN1S(=O)(=O)c1cccc2cccnc12 (stereo not drawn),-23.4%
17,COc1ccccc1CCc1nnc(CCC(=O)N(C)Cc2cccc3ncccc23)o1,-1.35%
18,Cc1cccn2c(=O)nc(SCC(=O)Nc3ccc4c(c3)OCO4)nc12,0.76%
19,CC(c1ccccc1)C1C(C#N)=C(N)SC(N)=C1C#N (stereo not drawn),-11.3%
20,O=C(NC1CCN(CC(=O)N(c2ccccc2)c2ccccc2)CC1)c1ccc([N+](=O)[O-])cc1,-78.6%
21,CC(C)Oc1cccc(C(=O)N/N=C/c2ccoc2)c1,12.8%
22,CC(=O)c1ccc(NC(=O)Nc2ccc(Br)cc2C)cc1,7.32%
23,COc1ccc(NC(=O)NCCN2CCCCC2)cc1,7.19%

row,Compound,"hERG current change (%, negative = inhibition) at 1uM"
1,O=C(CSc1ncnc2sc3c(c12)CCCC3)c1ccccc1,9.22%
2,Cc1cccc(NC(=S)N(CCN2CCOCC2)Cc2ccccc2F)c1,3.83%
3,COC(=O)c1sc(S(=O)(=O)NCc2ccccc2)c(C(=O)OC)c1C,-5.58%
4,O=C(NCc1ccccc1)c1ccc(Br)o1,12.4%
5,Cc1oc2c(c1C(=O)NCCO)CCCC2,14%
6,CN(Cc1cccnc1)C(=O)Cc1ccc(NS(=O)(=O)c2cccc(C(F)(F)F)c2)cc1,-4.5%
7,CCn1ccc(C(=O)NCc2ccc3c(c2)OCO3)n1,9.9%
8,COCCNC(=O)COC(=O)C1=Cc2ccccc2OC1,13.7%
9,Nc1cc(CN2C(=O)c3ccccc3C2=O)cc(Cl)c1O,3.7%
10,COc1cc(OC)c(C2=NOC(C(=O)NCc3ccc4c(c3)OCO4)C2)cc1Cl (stereo not drawn),12.5%
11,O=C(C(=O)N1CCCCC1)c1c(-c2ccccc2)[nH]c2ccccc12,9.47%
12,Cc1ccc(Oc2nnc(-c3ccccc3)c3ccccc23)cc1,-3.06%
13,Nn1c(SCc2cn3cc(Cl)ccc3n2)nnc1-c1ccncc1,4.79%
14,COC(=O)c1cc2c(ccn2-c2ccc(F)cc2)n1CC(=O)N1CCN(C(=O)c2ccco2)CC1,-46.1%
15,O=C1CC2c3ccccc3C1C1C(=O)N(Cc3ccccc3)C(=O)C21 (stereo not drawn),8.84%
16,O=C(c1cccc([N+](=O)[O-])c1)c1ccc2c(c1)OCCOCCOCCOCCO2,-32.6%
17,CCOc1ccc(-c2nnc3sc(COc4ccc(C)cc4)nn23)cc1,12.2%
18,CCc1ccc(S(=O)(=O)NCCc2cn3cccc(C)c3n2)s1,1.83%
19,CN(CCc1cn[nH]c1)Cc1nc(Cc2ccccc2F)no1,13.5%
20,COc1ccc(Oc2c(Cl)cnn(-c3ccc(F)cc3)c2=O)cc1,1.94%
21,Cc1cccc(NC(=O)CC2(CC(=O)O)CCCC2)c1,21.6%

# — paper PMC4336329 (PLoS ONE, 2015)
